The other results are listed elsewhere or left out. Most values come without repeats; read them as rough.
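Further: cell number obtained by counting DAPI-stained nuclei in high-throughput microscope images with image analysis software, screen run in 1,536-well plates.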

The test concerns IST-MEL1. The test is described as follows: cell count relative to DMSO control; melanoma cells; higher = more viable cells. Conditions: library dose: low library concentration; 72 h.
In the case of `Nc1ccn([C@@H]2O[C@H](CO)[C@@H](O)C2(F)F)c(=O)n1` [gemcitabine] + Oc1nc(-c2ccc(C(F)(F)F)cc2)nc2c1CSCC2 [XAV939] (first compound 0.0004 µM, partner dose 2 µM), the cell count is 68.4%.

As for `Nc1ccn([C@@H]2O[C@H](CO)[C@@H](O)C2(F)F)c(=O)n1` [gemcitabine] + COc1ccc2c(c1)CCC1C2CCC2(C)C(NCCCCCCN3C(=O)C=CC3=O)CCC12 [U73122] (first compound 0.0004 µM, partner dose 0.4 µM), the cell count amounted to 69.3%.

On to `CC(=O)c1c(C)c2cnc(Nc3ccc(N4CCNCC4)cn3)nc2n(C2CCCC2)c1=O` [palbociclib] + O=c1cc(-c2cccc3c2Sc2ccccc2S3)oc(N2CCOCC2)c1 [KU55933] (first compound 0.04 µM, partner dose 1 µM), for which the cell count came out at 93.1%.

`CC(=O)c1c(C)c2cnc(Nc3ccc(N4CCNCC4)cn3)nc2n(C2CCCC2)c1=O` [palbociclib] + Cc1cc([N+](=O)[O-])ccc1NS(=O)(=O)c1cc(Cl)ccc1Cl [FH535] (first compound 0.04 µM, partner dose 1 µM) gave a cell count of 74.4%.

The compound `Nc1ncn([C@H]2C[C@H](O)[C@@H](CO)O2)c(=O)n1` [decitabine] + CCCCCCCCCCCC1=C(O)C(=O)C=C(O)C1=O [Embelin] (first compound 0.1 µM, partner dose 1.2 µM) displayed a cell count of 84.5%.

In the case of `Nc1ccn([C@@H]2O[C@H](CO)[C@@H](O)C2(F)F)c(=O)n1` [gemcitabine] + CCCCCCCCCCCC1=C(O)C(=O)C=C(O)C1=O [Embelin] (first compound 0.0004 µM, partner dose 1.2 µM), the cell count was determined as 62.6%.

`Nc1nc(F)nc2c1ncn2[C@@H]1O[C@H](CO)[C@@H](O)[C@@H]1O` [fludarabine] + CC(C)CCN1c2nc(Nc3cc(F)c(O)c(F)c3)ncc2N(C)C(=O)C1C [BID1870] (first compound 0.2 µM, partner dose 0.2 µM): the cell count turned out to be 92.4%.

With `CO[C@H]1C[C@@H]2CC[C@@H](C)[C@@](O)(O2)C(=O)C(=O)N2CCCC[C@H]2C(=O)O[C@H]([C@H](C)C[C@@H]2CC[C@@H](OCCO)[C@H](OC)C2)CC(=O)[C@H](C)/C=C(\C)[C@@H](O)[C@@H](OC)C(=O)[C@H](C)C[C@H](C)/C=C/C=C/C=C/1C` [everolimus] + COc1ccc(-c2ccc3c(N4CCOCC4)nc(N4C[C@@H](C)O[C@@H](C)C4)nc3n2)cc1CO [KU0063794] (first compound 0.02 µM, partner dose 0.02 µM), the cell count was found to be 85%.

Compound `CC(=O)O[C@@]12CO[C@@H]1C[C@H](O)[C@@]1(C)C(=O)[C@H](O)C3=C(C)[C@@H](OC(=O)[C@H](O)[C@@H](NC(=O)OC(C)(C)C)c4ccccc4)C[C@@](O)([C@@H](OC(=O)c4ccccc4)[C@H]21)C3(C)C` [Docetaxel] + CCN(CC)CCCCNc1ncc2cc(-c3cc(OC)cc(OC)c3)c(NC(=O)NC(C)(C)C)nc2n1 [PD173074] (first compound 0.0001 µM, partner dose 0.1 µM) showed a cell count of 69.4%.

Compound `Nc1nc(F)nc2c1ncn2[C@@H]1O[C@H](CO)[C@@H](O)[C@@H]1O` [fludarabine] + CN(NC(=O)CC(=O)NN(C)C(=S)c1ccccc1)C(=S)c1ccccc1 [STA4783] (first compound 0.2 µM, partner dose 0.006 µM) came in with a cell count of 74.3%.

For `Nc1ncn([C@H]2C[C@H](O)[C@@H](CO)O2)c(=O)n1` [decitabine] + c1cc(-c2cnn3cc(-c4ccc(OCCN5CCCCC5)cc4)cnc23)ccn1 [Dorsomorphin] (first compound 0.1 µM, partner dose 0.4 µM), the cell count is 85.1%.

As for `CC(=O)c1c(C)c2cnc(Nc3ccc(N4CCNCC4)cn3)nc2n(C2CCCC2)c1=O` [palbociclib] + COc1cc(N2CCC(N3CCN(C)CC3)CC2)ccc1Nc1ncc(Cl)c(Nc2ccccc2S(=O)(=O)C(C)C)n1 [NVP-TAE684] (first compound 0.04 µM, partner dose 0.08 µM), the cell count turned out to be 85.4%.

As to `CC(=O)O[C@@]12CO[C@@H]1C[C@H](O)[C@@]1(C)C(=O)[C@H](O)C3=C(C)[C@@H](OC(=O)[C@H](O)[C@@H](NC(=O)OC(C)(C)C)c4ccccc4)C[C@@](O)([C@@H](OC(=O)c4ccccc4)[C@H]21)C3(C)C` [Docetaxel] + CCCCCCCCCCCC1=C(O)C(=O)C=C(O)C1=O [Embelin] (first compound 0.0001 µM, partner dose 1.2 µM), the cell count worked out at 73.6%.

On to `Nc1nc(F)nc2c1ncn2[C@@H]1O[C@H](CO)[C@@H](O)[C@@H]1O` [fludarabine] + NCC(=O)Nc1ccc(-n2nc(C(F)(F)F)cc2-c2ccc3c(ccc4ccccc43)c2)cc1 [OSU03012] (first compound 0.2 µM, partner dose 1 µM), for which the cell count came out at 87.6%.

Compound `Nc1ccn([C@@H]2O[C@H](CO)[C@@H](O)C2(F)F)c(=O)n1` [gemcitabine] + COc1cc(Nc2ncc(F)c(Nc3ccc4c(n3)NC(=O)C(C)(C)O4)n2)cc(OC)c1OC [Tamatinib] (first compound 0.0004 µM, partner dose 0.4 µM) gave a cell count of 70.6%.

`Nc1nc(F)nc2c1ncn2[C@@H]1O[C@H](CO)[C@@H](O)[C@@H]1O` [fludarabine] + COc1cc(N2CCC(N3CCN(C)CC3)CC2)ccc1Nc1ncc(Cl)c(Nc2ccccc2S(=O)(=O)C(C)C)n1 [NVP-TAE684] (first compound 0.2 µM, partner dose 0.08 µM) registered a cell count of 94.9%.

As for `Nc1ncn([C@H]2C[C@H](O)[C@@H](CO)O2)c(=O)n1` [decitabine] + COc1cc(Nc2ncc(F)c(Nc3ccc4c(n3)NC(=O)C(C)(C)O4)n2)cc(OC)c1OC [Tamatinib] (first compound 0.1 µM, partner dose 0.4 µM), the cell count worked out at 87.4%.

Regarding `Nc1ccn([C@@H]2O[C@H](CO)[C@@H](O)C2(F)F)c(=O)n1` [gemcitabine] + Cc1ccc(NC(=O)c2cccc(N(C)C)c2)cc1NC(=O)c1ccc(O)cc1 [ZM336372] (first compound 0.0004 µM, partner dose 2 µM), the cell count turned out to be 71.9%.

On to `Nc1ncn([C@H]2C[C@H](O)[C@@H](CO)O2)c(=O)n1` [decitabine] + NCC(=O)Nc1ccc(-n2nc(C(F)(F)F)cc2-c2ccc3c(ccc4ccccc43)c2)cc1 [OSU03012] (first compound 0.1 µM, partner dose 1 µM), for which the cell count worked out at 79.6%.

Source of the values: the supplement of paper PMC4604168 (melanoma cell lines).
